{"source": "PubChem BioAssay AID887", "about": "(National Center for Advancing Translational Sciences (NCATS), 2007)", "note": "About 1,100 (1.5%) of roughly 74,000 compounds were called active. Inconclusive results, whose numbers are uncertain, are shown with a selection of clear calls. The call rests on the fitted dose curve; in most records, active means well fitted inhibition curve with a large enough effect; inconclusive means small, poorly fitted or top-dose-only effect; inactive means no such curve, though single readings can be large or run the other way. No potency is given beside an inconclusive call; the fits are too rough. On the % scale 0 is the no-effect control and ±100 the full control effect; potency means the concentration at half of the fitted maximal effect; tags describe the fitted curve by direction and shape."}
{"molecular_target": "Polyunsaturated fatty acid lipoxygenase ALOX15 (Homo sapiens) (UniProt P16050)", "sequence (P16050 whole entry, looked up)": "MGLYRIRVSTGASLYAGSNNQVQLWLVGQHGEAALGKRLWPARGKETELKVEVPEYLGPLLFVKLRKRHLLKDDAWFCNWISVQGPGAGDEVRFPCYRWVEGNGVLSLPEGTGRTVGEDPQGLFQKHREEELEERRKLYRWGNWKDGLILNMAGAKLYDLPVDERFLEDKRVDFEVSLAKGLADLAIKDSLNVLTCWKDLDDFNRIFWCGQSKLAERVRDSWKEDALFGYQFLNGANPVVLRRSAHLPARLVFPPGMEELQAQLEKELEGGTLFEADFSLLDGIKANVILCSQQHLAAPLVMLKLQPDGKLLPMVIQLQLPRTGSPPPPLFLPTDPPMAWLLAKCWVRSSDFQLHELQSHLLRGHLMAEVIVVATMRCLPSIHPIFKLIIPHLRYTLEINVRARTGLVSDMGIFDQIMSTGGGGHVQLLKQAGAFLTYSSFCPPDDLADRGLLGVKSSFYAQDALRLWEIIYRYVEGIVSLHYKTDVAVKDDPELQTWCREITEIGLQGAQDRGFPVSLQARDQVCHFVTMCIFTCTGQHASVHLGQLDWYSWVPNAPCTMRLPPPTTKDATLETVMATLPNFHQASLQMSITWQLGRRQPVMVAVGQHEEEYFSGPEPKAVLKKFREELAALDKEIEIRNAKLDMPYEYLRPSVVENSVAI", "assay": "qHTS Assay for Inhibitors of 15-hLO (15-human lipoxygenase); further: nearly all actives have a fitted effect of over 55% in size", "conditions": "purified 15hLO-1, xylenol orange hydroperoxide absorbance; activity change, negative = inhibition: at 57.1 µM (top of the series) unless noted", "in_short": "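Readout: Fe(III)-xylenol orange absorbance, 573-to-405 nm ratio as reaction progress. Enzyme 40 nM purified human 15hLO-1, substrate 50 uM arachidonic acid, 6 min RT after 15 min compound preincubation; Hepes pH 7.5 buffer with Triton X-100.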"}
{"smiles": "COC(=O)c1ccc2c(c1)NC(=O)C1CCCN21", "note": "(centres undefined)", "Potency": "active: 7.94 µM"}
{"smiles": "COC(=O)c1ccccc1Nc1cc(C)nc2nc(C)nn12", "Potency": "inactive"}
{"smiles": "CN1C(=O)CSc2ccc(NC(=O)NCCC3=CCCCC3)cc21", "Potency": "inconclusive [inhibitor, single point]"}
{"smiles": "CCN(Cc1cc2ccccc2[nH]c1=O)S(=O)(=O)c1ccccc1", "Potency": "inconclusive [inhibitor, partial curve]"}
{"smiles": "COc1ccc(CCNC(=O)CCSc2nc(-c3ccco3)cc(C(F)(F)F)n2)cc1OC", "Potency": "inconclusive [inhibitor, partial curve]"}
{"smiles": "NC(=O)CC[C@H](N)C(=O)O", "Potency": "inconclusive [inhibitor, single point]"}
{"smiles": "Cn1cccc1Cc1nnc(SCC(=O)Nc2ccc3c(c2)OCCO3)n1-c1ccc(F)cc1", "Potency": "inconclusive [inhibitor, partial curve]"}
{"smiles": "Cc1cc(-c2cc(N)n(-c3ccccc3)n2)c(C)n1C1CCCC1", "Potency": "inconclusive [inhibitor, single point]"}
{"smiles": "FC(F)(F)c1ccccc1-c1nccc(-n2ccnc2)n1", "Potency": "inconclusive [inhibitor, full curve]"}
{"smiles": "CC(=O)OCC(=O)C1CCC2C3CCC4=CC(=O)CC[C@@]4(C)C3CC[C@]12C", "note": "(some centres undefined)", "Potency": "inactive"}
{"smiles": "O=C(Oc1cccnc1)c1cccc(Cl)c1", "Potency": "inconclusive [inhibitor, single point]"}
{"smiles": "OCCNCCCCCOc1ccc(F)cc1", "Potency": "inactive"}
{"smiles": "CCOC(=O)c1ccc(CC(=O)c2oc3cc(O)ccc3c2C)o1", "Potency": "active: 20 µM"}
{"smiles": "Cc1nc2cnc(N3CCN(C)CC3)nc2n(Cc2cccs2)c1=O", "Potency": "inactive"}
{"smiles": "COC(=O)[C@@H](NC(=O)NC1CCCc2ccccc21)C(C)C", "note": "(some centres undefined)", "Potency": "inactive"}
{"smiles": "CCOC(=O)N1CCN(C(=O)c2nn(-c3ccc(C)cc3)c(=O)c3c2c2ccccc2n3C)CC1", "Potency": "inconclusive [inhibitor, partial curve]"}
{"smiles": "O=C(O)c1ccccc1-c1ccc(/C=c2\\sc3nc4cc(Br)cnc4n3c2=O)o1", "Potency": "inconclusive [inhibitor, partial curve]"}
{"smiles": "Cc1c(O)c(=O)n(-c2ccccc2)n1C", "Potency": "inconclusive [inhibitor, partial curve]"}
{"smiles": "Nc1c(C(=O)NCc2ccco2)sc2nc3c(cc12)C(=O)CCC3", "Potency": "inconclusive [inhibitor, partial curve]"}
{"smiles": "COc1ccc(Nc2ccc3c(c2)=NC2(CCCCC2)[N+]=3[O-])cc1", "Potency": "inconclusive [inhibitor, partial curve]"}
{"smiles": "COc1cc(CN2CCC(C(=O)NC3CCCC3)CC2)ccc1O", "Potency": "inconclusive [inhibitor, partial curve]"}
{"smiles": "Nc1nc(-c2ccc(Cl)c(Cl)c2)c(-c2ccncc2)s1", "Potency": "inconclusive [inhibitor, single point]"}
{"smiles": "C=CC(C)n1c(Br)nc2c1c(=O)[nH]c(=O)n2C", "note": "(centres undefined)", "Potency": "inactive"}
{"smiles": "Cc1ccc(C)c(C(=O)N(Cc2nc(-c3ccc(Cl)cc3)no2)C(C)C)c1", "Potency": "inconclusive [inhibitor, single point]"}
{"smiles": "COc1ccc(N2CSC3=C(C#N)C(c4cccc(OC)c4OC)CC(=O)N3C2)cc1", "note": "(centres undefined)", "Potency": "inconclusive [inhibitor, partial curve]"}
{"smiles": "C#C[C@]1(O)CCC2C3CCC4=C(CCC(=O)C4)C3CC[C@@]21C", "note": "(some centres undefined)", "Potency": "inconclusive [inhibitor, single point]"}
{"smiles": "CS(=O)(=O)N1CCC2(CC1)CN(C(c1ccccc1)c1ccccc1)C2", "Potency": "inconclusive [inhibitor, single point]"}
{"smiles": "N#Cc1cc2nc(O)c(O)nc2cc1[N+](=O)[O-]", "Potency": "inconclusive [inhibitor, single point]"}
{"smiles": "Cc1ccc(-n2nnc3c(=O)n(CC(=O)NCc4ccco4)cnc32)cc1", "Potency": "inconclusive [inhibitor, single point]"}
{"smiles": "Cc1ccc2c(CC(=O)Nc3nc(C)cs3)coc2c1", "Potency": "inconclusive [inhibitor, single point]"}
{"smiles": "NC(=O)c1cc(Cc2ccccc2)sc1NC(=O)c1ccco1", "Potency": "inconclusive [inhibitor, partial curve]"}
{"smiles": "O=C(c1ccc2c(c1)OCO2)[C@@H]1[C@@H]2C(=O)N(C3CCCCC3)C(=O)[C@@H]2C2c3ccccc3C=CN21", "note": "(some centres undefined)", "Potency": "active: 15.8 µM"}
{"smiles": "CN1CCN(Cc2nc3c(c(=O)[nH]c(=O)n3C)n2Cc2c(F)cccc2Cl)CC1", "Potency": "inactive"}
{"smiles": "C=CC(C)(C)c1[nH]c2ccccc2c1C1=C(O)C(=O)C(c2c[nH]c3c(CC=C(C)C)cccc23)=C(O)C1=O", "Potency": "inconclusive [inhibitor, partial curve]"}
{"smiles": "C=CCn1c(SCc2cc(=O)n3ccsc3n2)nnc1C1CCCCC1", "Potency": "inconclusive [inhibitor, full curve]"}
{"smiles": "CN(C)c1ccc(-c2cc(-n3ccnc3)ncn2)cc1", "Potency": "inconclusive [inhibitor, partial curve]"}
{"smiles": "CCOC(=O)CCN1C(=O)[C@H]2[C@H]3[C@H](O)[C@H](O)C/C(=N/OC[C@@H](O)COCc4ccco4)[C@H]3CC[C@@H]2C1=O", "activity change, negative = inhibition": "inactive: -0.549% [at 11.4 µM]"}
{"smiles": "c1cncc(-c2cncnc2NCc2cccs2)c1", "Potency": "inactive"}
{"smiles": "Cc1ccccc1Cn1c(CN2CCc3ccccc3C2)nc2c1c(=O)n(C)c(=O)n2C", "Potency": "inconclusive [inhibitor, single point]"}
{"smiles": "CC(=O)OCCC(C)CCC=C(C)C", "note": "(centres undefined)", "Potency": "active: 10 µM"}
{"smiles": "CC(=O)N1CCN(CC(O)COc2ccc(OCc3ccccc3)cc2)CC1", "note": "(centres undefined)", "Potency": "inactive"}
{"smiles": "C[C@@H]1CNCCN1S(=O)(=O)c1cccc2cnccc12", "Potency": "inconclusive [inhibitor, single point]"}
{"smiles": "O=C(Nc1ccncc1)c1cc([N+](=O)[O-])ccc1Cl", "Potency": "inconclusive [inhibitor, single point]"}
{"smiles": "COc1ccc(/C=N/n2c(SC)nnc2-c2ccccc2)c(OC)c1OC", "Potency": "inconclusive [inhibitor, partial curve]"}
